The results in this text go back to the supplement of paper PMC10681739.

± gives the standard deviation of the averaged measurements. Over roughly 4,000 sequences, “arbitrary fluorescence units” has its median near 830; the highest 2% begin near 6,500. This part holds few or none of the hits.
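Further: Full-length recombinant human RUNX1 bound to double-stranded DNA microarray spots, detected with an Alexa488-labelled secondary antibody after the anti-RUNX1 primary, read as scanned spot fluorescence.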

The assay deals with RUNX1 (UniProt Q01196). Briefly: RUNX1 binding intensity (PBM fluorescence), RUNX1 alone (arbitrary fluorescence units); higher = stronger binding. Conditions: RUNX1 concentration 2 nM; ETS1 concentration 0 nM. As to the method: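 gcPBM on 36-bp genomic-derived probes (partner site mutated) containing one RUNX1 site and no ETS1 site. Recombinant human RUNX1 (2 nM) was incubated alone or with ETS1 (25 nM) and detected by anti-RUNX1 antibody fluorescence. Values are medians over 4 replicate spots (not normalised). The probes sit in constant array flanks that are not printed.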
Chain of UniProt Q01196 (Q01196 whole entry): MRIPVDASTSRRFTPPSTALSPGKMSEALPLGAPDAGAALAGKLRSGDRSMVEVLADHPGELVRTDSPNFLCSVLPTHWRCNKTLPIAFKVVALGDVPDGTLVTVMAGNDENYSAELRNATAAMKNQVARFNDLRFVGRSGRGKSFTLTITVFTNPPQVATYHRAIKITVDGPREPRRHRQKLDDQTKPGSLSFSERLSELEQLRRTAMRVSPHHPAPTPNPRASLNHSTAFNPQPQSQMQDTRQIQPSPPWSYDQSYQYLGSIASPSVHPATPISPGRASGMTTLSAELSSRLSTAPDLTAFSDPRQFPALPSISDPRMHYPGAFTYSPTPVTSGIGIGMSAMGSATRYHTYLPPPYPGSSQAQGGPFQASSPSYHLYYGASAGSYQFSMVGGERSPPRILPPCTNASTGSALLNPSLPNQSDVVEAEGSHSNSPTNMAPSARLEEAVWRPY
For GTGCGGTGTGCCTCGGGTCGGTGCACCGTCCTGGAT, the RUNX1 binding intensity was 720.

As to TGGATTAACCGCTAAACATAGTTTACTGTTGTGTAA, the RUNX1 binding intensity worked out at 1170.

For CTGTGCTGGCCAGCGGTGGGGATCCAGCATTCCTAT, the RUNX1 binding intensity is 703.

TCCCCCACTTGCTGGCAGCAGCAGTGTGGTGAGGAG: the RUNX1 binding intensity amounted to 746.

On to CGACCTTGCGGGGCGGTGCAAGCTGGCAGAACCCGA, for which the RUNX1 binding intensity stood at 775.

Take AGGCAGGGAGGTGGCGCAGAGGAGACCACAGGACAC: the RUNX1 binding intensity is 788.

Sequence CAGGGGCCGCAGTCGCGCTCCTCGCGGCCGTAAGAG had an RUNX1 binding intensity of 705.

As for GTCTTAAGCAAAGCCACACTTACTTTCTAAGCTGTT, the RUNX1 binding intensity is 952.

GAGGCGACCCACCTCCGCTGTGCGGGGGCAACTGCA returned an RUNX1 binding intensity of 710.

CCAAACGCTTGCCGGTACGTGTTGCTGCGGGAACCC came in with an RUNX1 binding intensity of 728.

In turn, CAGCCCTCTTGCTGCCTGTCTGTGGCTGGTGAGGTT displayed an RUNX1 binding intensity of 855.

As for CCAGCCACTTTCGCTCGTCCGCCTAATACCGCGCCT, the RUNX1 binding intensity was found to be 1370.

In the case of CCTGTGGTAATCCTTACCGTGGCGAGTGCCGCGCTC, the RUNX1 binding intensity came out at 797.

Take GAATGGAACTGGGGGCTGGGCCGTGTGGGTTTGTGA: the RUNX1 binding intensity is 839.

With TCCTGGCTGCCCGCAAGGCCAGAAAGAGCGAAAACA, the RUNX1 binding intensity is 937.

In turn, AGAGCGCGCCCTCCGTGACGCCGCAAGAGCGCGCCT displayed an RUNX1 binding intensity of 730.

Regarding GGAGGAGTGGTTTCTGAGAGAAGGCAGCACCTGCCC, the RUNX1 binding intensity was found to be 757.

In the case of CCAGCATGTGGGCTCTGAACCTGAAGCAACAGGCTC, the RUNX1 binding intensity worked out at 796.

The sequence GAGGAGATTCCCGGCCCCCATCCCCGCAGCGACCTT came in with an RUNX1 binding intensity of 840.

CGGGAGAGGAATCCAGGTTGGACAGAGGTGGTTTCA returned an RUNX1 binding intensity of 714.

ACCCCACCAACCGCCTCCACTTACGGCACCCACGAG displayed an RUNX1 binding intensity of 1450.

In turn, TGGCGGCTGTGGGGATTTGCCTGAAGGTTAATAATG had an RUNX1 binding intensity of 713.

TTTCTTACCACTAGGGGACGCTAGTTCCCTGAGGCT returned an RUNX1 binding intensity of 905.

CAGTTTATGCTGTGAGAGCCTTGTGGTTCCTACTAA yielded an RUNX1 binding intensity of 764.

In the case of GCCTTCTGGGACATGTAGTTCCCCGTCACCGCGAAG, the RUNX1 binding intensity is 868.

The sequence CACCCTCAACTTGCTGACCCATAAACCACAAGCTAT returned an RUNX1 binding intensity of 4340.

The sequence TCGGGCTGCGGTCCTACGGCAATTCCCGTGGGAGGA yielded an RUNX1 binding intensity of 847.

Consider AGCACAGCCCGCAGCCATGGGTTCAGCCGTAAGCCC, for which the RUNX1 binding intensity was found to be 846.

Sequence CAGCTCCCGGGCTAATTAGCAGTCGCGGTGTGCCGC had an RUNX1 binding intensity of 766.

The sequence TCACTGTGGTATCTGGAAGCAAAAGGCAATGTGCTC returned an RUNX1 binding intensity of 811.

CCGGGGTAAACCACGACACGACTCCCTGCCGTGTGG showed an RUNX1 binding intensity of 886.

GCCCTGCGGGCCCCGTTCCCGCCATTCCTTCATGCC: the RUNX1 binding intensity is 1370.

The sequence TCCGAAAGTCGGAGGAACACCCCAGCCGCCGCAGCC yielded an RUNX1 binding intensity of 747.

Consider GCACTGCGGGTCGGACATAGTGACGCACTTTCGCCC, for which the RUNX1 binding intensity was found to be 718.

Consider CCACCTCCTTCGGACGCCGCCCGCAACTGAGCATGC, for which the RUNX1 binding intensity turned out to be 1040.

For CAGATTCCCGTAAAGGGGGACATGTAGCCGCAAAAG, the RUNX1 binding intensity worked out at 829.

Consider GAGAAAGCAGCGCCGCAGCGCGCCTTCGGCCACGCC, for which the RUNX1 binding intensity was determined as 737.

Sequence GCCTGTTTGTTCCCCCCCCGCGGCAACCGCTGCTCG yielded an RUNX1 binding intensity of 1210.

In the case of CCCGCCGCCACAAGGAGACGCCCGAGGACCTCCCTC, the RUNX1 binding intensity was 926.

For the sequence GAAGAAGTCAAGAAATGCTGCCGCAGCAGCCAGCCC, the RUNX1 binding intensity came out at 765.

In turn, GTCTCGCACCGCGAACACTGAGCTGAACGGAGATGT displayed an RUNX1 binding intensity of 710.

As to TCCCCCGTTTGGTTTTCAGGCCCTCTTCATGGAGCT, the RUNX1 binding intensity stood at 988.

For the sequence GGACCGAAAGTAGGTTTCTACCCGACCGCATTTTAC, the RUNX1 binding intensity worked out at 885.

Sequence CTGAAAAACTGGAAGTGGGTGGTTTGAAACGTAAAT gave an RUNX1 binding intensity of 842.

The sequence CTCGGCCTGCGGCGGGGTAGAGCGCCGGCAACGGCT registered an RUNX1 binding intensity of 741.

AACAAACCTGATGGGGTTGCCACCCGCAATCTTGTC showed an RUNX1 binding intensity of 883.

In turn, CCTGCACTTGGCCGCAGCCAGCTTGTTCCTCTCGCA showed an RUNX1 binding intensity of 1000.

AGGAGCCCACAGCCCTGGGAGTGTTTACTGTTTGCC gave an RUNX1 binding intensity of 826.

As for GCTCTGACCGCTCTGCCGCGCGCCTGAAGCAGCCTG, the RUNX1 binding intensity came out at 822.

With CTCATAACCGCTAACTCAACCTCTAACATTTGCTGT, the RUNX1 binding intensity was 3220.

Consider CTCTGGGAGGCCGCAGCTTTCCACCGAAAAGAGGGT, for which the RUNX1 binding intensity came out at 829.

In turn, ATCTTACCCCGGGAATGACAACAGTGCCGCAAACTG showed an RUNX1 binding intensity of 759.

In the case of GGGGATGCGGGTCGGGAGGTAGTGCCGGGTGCGCGG, the RUNX1 binding intensity was determined as 722.

For the sequence GGAGCAGAGACCGCGATTACTCAACAGTAAAGAGAG, the RUNX1 binding intensity turned out to be 776.

With GCGCTGCGGGGATTAGGAGGGCGCTTACGGTGGCGG, the RUNX1 binding intensity is 725.

Sequence CGCCCCGGCAACCGCCCACGTCCTGGGGCCAGGCCT registered an RUNX1 binding intensity of 928.

The sequence CAGGGACGTTCGAACTGGGCGGGGCCCACCGCAGTT showed an RUNX1 binding intensity of 672.

The sequence TTGTTGTGGTTCTACGTCACGTGGTCCCGGGAGTTC returned an RUNX1 binding intensity of 1220.

As to ACCCCGAAAGTGTGGGCGCGGCTGCGGTTTAACCCG, the RUNX1 binding intensity is 7200.

Take GCCGAGCCAGCGGTTTCGCATCTGCACTTTCGCCAC: the RUNX1 binding intensity was found to be 941.

In turn, CAGTCAGACGGGAGCCCGGCTTCTGTGGTGCCTGCC registered an RUNX1 binding intensity of 696.

For CGAACGCCGGGCGTTCTGGGCACGTGACCGCCACCC, the RUNX1 binding intensity was found to be 787.

As for CGGCCTGTGCGGGGAGTTTAGGGAGGTGGCAGGGTG, the RUNX1 binding intensity stood at 828.

For CGCCGGTCCCATCTCCTTTCTGCGGGGTGAGCAGCA, the RUNX1 binding intensity was found to be 1030.

As for ACCCCTGCGGGTCCTGTGCCTGGCGGGCTTCAGGCA, the RUNX1 binding intensity was 692.

With AGAACTGTGGTATGCGCAAACCATTACAGGGTGTGA, the RUNX1 binding intensity amounted to 786.

Consider GTGAGACAAGACCACAGGCCACATTGCCTCTAAGTA, for which the RUNX1 binding intensity came to 908.

Take GACGCAGCATGAGGTGGAGGTGTAGAATGTGGTGCT: the RUNX1 binding intensity amounted to 760.

Consider AAAGTAGGTCCAGTCCGCGGGTGCGGTCGGGCATGC, for which the RUNX1 binding intensity stood at 777 ± 13.

Regarding CTGCGTTGCCTCTGAGTTTTGCATGTTGAGGTTGGA, the RUNX1 binding intensity came out at 811.

Sequence TGGGACTCTCAGCCGCAGAAGGCAGGCAATAGTGGC registered an RUNX1 binding intensity of 773.

The sequence CCACCATCTTTCAGGCTCCCTCGCGACCACCACGAC returned an RUNX1 binding intensity of 1280.

In turn, ACCTTGCTGGCCCTGGGAGCTGGTTTGAGGTTGCAG returned an RUNX1 binding intensity of 702.

TGGCGTTGGCGGTCTTGGCATGGGGCTGCCTCTGGG gave an RUNX1 binding intensity of 684.

Sequence TACCGCTGCTCCCTGCCTGCGCGGTGAGCCTGTGCC yielded an RUNX1 binding intensity of 768.

On to TGAACTCCGCCCACCGCGATCCGGAGGCCTAGCGCC, for which the RUNX1 binding intensity is 885.

In turn, CAACCGAAGTAACCCGCAATGCGGAGGGGCGAGGGG came in with an RUNX1 binding intensity of 885.

The sequence GCGCTCCCCGGCGTGCCCCGCGCTGCGGCCTGAAGG gave an RUNX1 binding intensity of 806.

Sequence AAGTTCTTTCGGGTCTGCAGTCTGTGGTGTGTTTGC returned an RUNX1 binding intensity of 787.

The sequence TAAACTACGTCTCCCAGAAGGCTGTGGGATTGCGTC displayed an RUNX1 binding intensity of 706.
